Measurements published in PubChem BioAssay AID2147 (National Center for Advancing Translational Sciences (NCATS), 2009).
In all, about 230,000 compounds went through this assay and about 3,600 (1.6%) were called active. The inconclusive results got no clear call from the source; some entries with a clear call stand among them for comparison. Calls follow the shape of the dose curve; as a rule, active = well fitted inhibition curve with a large enough effect (not every such curve was filed as active); inconclusive = small, poorly fitted or top-dose-only effect, or another doubt; inactive = no such curve, though single readings can be large or run the other way. Potencies beside an inconclusive call are fits to weak or partial responses and may not hold up.

molecular target: Lysine-specific demethylase 4E (Homo sapiens) (UniProt B2RXH2); test: qHTS Assay for Inhibitors of Human Jumonji Domain Containing 2E (JMJD2E); settings: JMJD2E catalytic domain, FDH-coupled NADH fluorescence (FDH is formaldehyde dehydrogenase); series mostly up to 57.1 µM; activity change, negative = inhibition: at the top concentration
Chain of UniProt B2RXH2 (B2RXH2 whole entry, looked up, the tested form may be a part): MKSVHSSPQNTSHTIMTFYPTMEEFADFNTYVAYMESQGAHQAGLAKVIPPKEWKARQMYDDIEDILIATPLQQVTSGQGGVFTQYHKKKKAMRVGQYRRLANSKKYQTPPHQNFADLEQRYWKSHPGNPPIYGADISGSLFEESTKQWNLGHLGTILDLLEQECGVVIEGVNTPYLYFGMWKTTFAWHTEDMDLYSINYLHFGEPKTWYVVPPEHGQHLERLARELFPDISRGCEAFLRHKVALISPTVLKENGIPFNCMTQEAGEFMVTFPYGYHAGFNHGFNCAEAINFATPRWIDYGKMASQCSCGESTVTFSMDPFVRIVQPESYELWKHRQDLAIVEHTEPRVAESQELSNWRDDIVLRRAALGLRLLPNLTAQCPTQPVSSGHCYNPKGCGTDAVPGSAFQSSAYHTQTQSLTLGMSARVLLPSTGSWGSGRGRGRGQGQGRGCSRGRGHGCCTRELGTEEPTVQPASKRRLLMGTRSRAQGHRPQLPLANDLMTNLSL
Also: nearly all actives have a fitted effect of over 50% in size.
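For activity change, negative = inhibition in this document: 0% = wells with enzyme and -100% = buffer wells without enzyme.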
Potency is read from the fitted curve at half-maximal effect; tags tell the direction and shape of the fitted curve.

Structure (SMILES) | Potency | activity change, negative = inhibition
CCCCN(CC)CCCNC(=O)CC1Nc2ccccc2NC1=O (stereo unspecified) | inconclusive: 28.2 µM [inhibitor, single point] | 
CC1(c2ccccc2)NC(=O)N(CC(=O)NC(=O)NC2CCCC2)C1=O (stereo unspecified) |  | inactive: -6.26%
COc1ccc(Nc2c3c(nc4ccccc24)CCCC3)cc1OC |  | inactive: 8.52%
Nc1ccccc1SC1CC(=O)N(Cc2ccccc2)C1=O (stereo unspecified) |  | inactive: -5.87%
CCOC(=O)c1sc2nc(CC(=O)OC)nc(NCc3ccco3)c2c1C | inconclusive: 31.6 µM [inhibitor, partial curve] | 
O=C(COc1ccccc1)Nc1nn[nH]n1 |  | inactive: -2.17%
Cc1ccc(NCC(=O)N/N=C/c2c[nH]c3ccccc23)cc1 |  | inactive: -2.47%
CN1c2ccccc2Oc2nnc(Cl)cc21 | inconclusive: 31.6 µM [inhibitor, partial curve] | 
Cc1ccc(-n2c(SCC(=O)Nc3ccc4c(c3)OCO4)nnc2-c2cccs2)cc1 | inconclusive: 39.8 µM [inhibitor, single point] | 
Fc1cccc(-n2c(-c3ccco3)nc3nc4ccccc4nc32)c1 | inconclusive: 3.16 µM [inhibitor, partial curve] | 
Cn1nnnc1SCCNCc1cc(Cl)ccc1OCc1ccccc1 | inconclusive: 39.8 µM [inhibitor, single point] | 
CCOc1ccc2nc(S(N)(=O)=O)sc2c1 | inconclusive: 22.4 µM [inhibitor, single point] | 
CCOC(=O)c1c(NC(=O)C2C3CCC(O3)C2C(=O)O)sc(C)c1-c1ccc(F)cc1 (stereo unspecified) | inconclusive: 39.8 µM [inhibitor, single point] | 
COc1ccc(NC(=O)N2CCc3nc(COc4ccccc4)c4c(c3C2)CO[C@@H](C)C4)cc1 |  | inactive: -6% [at 11.4 µM]
COc1ccc(/C=N/Nc2nc(-c3cccc(S(=O)(=O)N4CCCC4)c3)cs2)cc1OC | inconclusive: 35.5 µM [inhibitor, single point] | 
COc1cc2c(cc1OC)CN(Cc1cc(=O)n3c(-c4ccccc4)csc3n1)CC2 | inconclusive: 31.6 µM [inhibitor, partial curve] | 
CC(Nc1cc(N2CCCC2)ccc1[N+](=O)[O-])c1ccccc1 (stereo unspecified) |  | inactive: -5.81%
Nc1ccc2nc(C(F)(F)F)[nH]c2c1 | inconclusive: 35.5 µM [inhibitor, single point] | 
Nc1ccc(N)c(C(=O)O)c1 |  | inactive: -5.79%
O=C(O)c1cc(-c2cc3ccccc3o2)nn1-c1ccccc1 | inconclusive: 25.1 µM [inhibitor, partial curve] | 
CCc1c(SCCC(=O)O)nc2ccccc2c1C | inconclusive: 31.6 µM [inhibitor, single point] | 
COc1ccc(C(=O)/C(C#N)=N/Nc2ccc([N+](=O)[O-])cc2)cc1 |  | inactive: -23.5%
COc1ccc(NC(=S)N/N=C2\CC(C)(C)Oc3ccc(OC)cc32)cc1 | inconclusive: 28.2 µM [inhibitor, single point] | 

Structure (SMILES) | Potency | activity change, negative = inhibition
CC(/C=N/n1c(-c2cc(C)[nH]n2)n[nH]c1=S)=C\c1ccccc1 | inconclusive: 31.6 µM [inhibitor, single point] | 
O=C(c1ccco1)N(Cc1ccc([N+](=O)[O-])cc1)c1ccc(Br)cc1 |  | inactive: -1.31%
CCCCCC(=O)Nc1nc(C)c(-c2csc(Nc3cc(OC)ccc3OC)n2)s1 | inconclusive: 28.2 µM [inhibitor, single point] | 
COc1ccc(C(=O)Nc2cnc3ccccn3c2=O)cc1 | inconclusive: 35.5 µM [inhibitor, single point] | 
CC1(C)Cc2c(C#N)c(NCCCO)nc(-c3ccccc3)c2CO1 | inconclusive: 28.2 µM [inhibitor, partial curve] | 
O=C(COc1ccccc1/C=C1\SC(=O)NC1=O)Nc1ccc(F)cc1 | inconclusive: 39.8 µM [inhibitor, single point] | 
CC(=O)c1cccc(NC(=O)c2ccc(S(=O)(=O)N3CCCCC3)cc2)c1 |  | inactive: -3.01%
O=C(Nc1ccccc1)Nc1ccccc1C(=O)NCc1ccccc1 | inconclusive: 35.5 µM [inhibitor, single point] | 
CN1CCc2c(sc3c2C(=O)NC(c2ccccn2)N3)C1 (stereo unspecified) | inconclusive: 31.6 µM [inhibitor, partial curve] | 
COCCn1nnnc1CN(CCc1ccc(OC)c(OC)c1)Cc1cc2ccc(C)cc2[nH]c1=O | inconclusive: 22.4 µM [inhibitor, partial curve] | 
CCN(C(=O)CN1CCOCC1)C1(C)C(=O)c2ccccc2C1=O |  | inactive: 3.1%
Cc1nc(N/N=C/c2ccc(O)cc2)c2cnn(-c3ccccc3)c2n1 | inconclusive: 25.1 µM [inhibitor, partial curve] | 
CC1(C)Cc2[nH]c(=S)c(C#N)cc2CO1 | active: 12.6 µM | 
CN1CCCN(C(c2ccccc2)c2ccc(Cl)cc2)CC1 (stereo unspecified) | inconclusive: 14.1 µM [inhibitor, partial curve] | 
CCC(C)NC(=O)C1CCN(c2nc(C)cc(C)n2)CC1 (stereo unspecified) | inconclusive: 3.16 µM [inhibitor, full curve, poor fit] | 
O=C(N/N=C/c1oc(O)c2ccccc12)c1ccccc1O | inconclusive: 31.6 µM [inhibitor, single point] | 
CCCCCn1c(NC(=O)c2ccco2)c(S(=O)(=O)c2ccc(C)cc2)c2nc3ccccc3nc21 | inconclusive: 31.6 µM [inhibitor, partial curve] | 
O=C(O)/C=C/c1cn(-c2ccccc2)nc1-c1cccc([N+](=O)[O-])c1 |  | inactive: -4.14%
O=C1CCCCC1c1cccc2ccccc12 (stereo unspecified) |  | inactive: 2.32%
CCOC(=O)c1cnc2c(cnn2CC)c1NN=C(C)C | inconclusive: 35.5 µM [inhibitor, partial curve] | 
CCOC(=O)c1c(CCl)nc2ccccc2c1C | inconclusive: 28.2 µM [inhibitor, single point] | 
COc1cccc(C(=O)C2CCCN(Cc3c(C)n(C)n(-c4ccccc4)c3=O)C2)c1 (stereo unspecified) | inconclusive: 39.8 µM [inhibitor, single point] | 
COc1ccc([N+](=O)[O-])cc1NC(=O)C(C)OC(=O)/C=C/c1ccco1 (stereo unspecified) |  | inactive: 3.12%
